Data taken from PMC11674122.
No constants are given. Whether binding was seen depends on the method and setting. For part of these data: Binding seen in cells or lysates may run through a third protein. Some binding calls cover weakened binding; strength is not graded here. For part of these data: Tags and fused reporters may be left off the sequences shown. One block for each binder: values may come before it.

What was measured:
[1] = target: T1, active His-NEK2 (recombinant His-tagged NEK2) (UniProt P51955); assay: pull-down; His pull-down: Ni-NTA agarose beads reacted with His-NEK2 overnight at 4 °C, then mixed with GST-tagged wt or truncated fragments of RhoGDI1 purified from E. coli overnight at 4 °C; three washes; WB with NEK2 and GST antibodies; both purified
T1 sequence: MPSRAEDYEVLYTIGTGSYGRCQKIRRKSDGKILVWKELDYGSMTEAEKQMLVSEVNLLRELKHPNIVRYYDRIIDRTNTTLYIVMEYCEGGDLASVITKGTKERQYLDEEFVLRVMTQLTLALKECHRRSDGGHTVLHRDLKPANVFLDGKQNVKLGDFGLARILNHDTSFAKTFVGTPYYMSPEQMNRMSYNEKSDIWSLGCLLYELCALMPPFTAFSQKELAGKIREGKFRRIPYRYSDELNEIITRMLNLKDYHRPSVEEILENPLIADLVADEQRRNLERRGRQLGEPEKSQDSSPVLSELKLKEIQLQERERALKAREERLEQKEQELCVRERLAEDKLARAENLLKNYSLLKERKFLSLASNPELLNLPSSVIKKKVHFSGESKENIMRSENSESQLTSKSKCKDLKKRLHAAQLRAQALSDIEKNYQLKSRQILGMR

[2] = target: T2, HA-tagged NEK2 (Never In Mitosis A (NIMA)-related serine/threonine protein kinase 2) (human) (UniProt P51955); assay: co-IP; HeLa cells co-transfected with HA-NEK2 and Flag-RhoGDI1 or Flag-RhoGDI2; lysates immunoprecipitated with HA antibody, Western blot with HA and Flag antibodies
T2 sequence: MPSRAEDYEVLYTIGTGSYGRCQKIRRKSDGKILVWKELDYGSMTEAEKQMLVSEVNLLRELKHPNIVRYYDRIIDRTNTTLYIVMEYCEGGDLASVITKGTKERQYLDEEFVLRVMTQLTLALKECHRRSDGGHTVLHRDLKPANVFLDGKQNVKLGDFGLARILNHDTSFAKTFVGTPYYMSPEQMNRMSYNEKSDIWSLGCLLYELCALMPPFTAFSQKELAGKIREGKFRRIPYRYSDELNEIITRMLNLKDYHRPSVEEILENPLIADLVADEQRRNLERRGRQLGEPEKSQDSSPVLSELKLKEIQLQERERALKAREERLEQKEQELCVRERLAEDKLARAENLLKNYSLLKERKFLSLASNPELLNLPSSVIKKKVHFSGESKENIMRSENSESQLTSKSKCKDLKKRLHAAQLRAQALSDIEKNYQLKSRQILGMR

[3] = target: T3, recombinant GST-tagged RhoGDI1 (Cytoskeleton) (UniProt P52565); assay: pull-down; GST pull-down: GSH beads reacted with recombinant RhoGDI1 or RhoGDI2 overnight at 4 °C, then mixed with active His-NEK2 overnight at 4 °C; three washes; WB; both purified
T3 sequence: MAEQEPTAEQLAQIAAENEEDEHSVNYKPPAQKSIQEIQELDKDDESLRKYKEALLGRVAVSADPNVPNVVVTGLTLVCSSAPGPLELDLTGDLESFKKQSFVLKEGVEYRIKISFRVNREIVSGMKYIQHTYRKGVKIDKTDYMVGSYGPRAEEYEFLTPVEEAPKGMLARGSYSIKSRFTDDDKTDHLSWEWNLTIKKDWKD

[4] = target: T4, recombinant GST-tagged RhoGDI2 (Novusbio) (UniProt P52566); assay: as above
T4 sequence: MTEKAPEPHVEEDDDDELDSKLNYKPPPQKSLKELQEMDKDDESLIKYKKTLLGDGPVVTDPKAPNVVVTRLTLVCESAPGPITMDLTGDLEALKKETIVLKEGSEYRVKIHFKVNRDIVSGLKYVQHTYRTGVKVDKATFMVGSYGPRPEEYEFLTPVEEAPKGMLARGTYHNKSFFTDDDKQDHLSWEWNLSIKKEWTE

[5] = target: T5, endogenous RhoGDI1 (human (endogenous in HT-29, HCT116 and DLD-1)) (UniProt P52565); assay: co-IP; endogenous proteins; HT-29 and HCT116 lysates (RIPA buffer) immunoprecipitated with IgG or RhoGDI1 antibody at 4 °C for 24 h, agarose beads 2 h; WB
T5 sequence: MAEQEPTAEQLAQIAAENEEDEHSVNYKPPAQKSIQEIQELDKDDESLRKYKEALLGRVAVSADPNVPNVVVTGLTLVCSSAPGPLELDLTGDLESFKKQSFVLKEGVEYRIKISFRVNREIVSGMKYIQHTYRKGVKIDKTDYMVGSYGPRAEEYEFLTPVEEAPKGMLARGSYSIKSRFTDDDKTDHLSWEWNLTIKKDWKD

[6] = target: T5, endogenous RhoGDI1 (human (endogenous in HT-29, HCT116 and DLD-1)); assay: co-IP; HCT116 cells transfected with mock vector or GFP-tagged RhoGDI1 aa 112–134; lysates immunoprecipitated with IgG or RhoGDI1 antibody; WB, band intensities NEK2/RhoGDI1
[7] = target: T6, endogenous NEK2 (human (endogenous in HT-29 and HCT116)) (UniProt P51955); assay: as above
T6 sequence: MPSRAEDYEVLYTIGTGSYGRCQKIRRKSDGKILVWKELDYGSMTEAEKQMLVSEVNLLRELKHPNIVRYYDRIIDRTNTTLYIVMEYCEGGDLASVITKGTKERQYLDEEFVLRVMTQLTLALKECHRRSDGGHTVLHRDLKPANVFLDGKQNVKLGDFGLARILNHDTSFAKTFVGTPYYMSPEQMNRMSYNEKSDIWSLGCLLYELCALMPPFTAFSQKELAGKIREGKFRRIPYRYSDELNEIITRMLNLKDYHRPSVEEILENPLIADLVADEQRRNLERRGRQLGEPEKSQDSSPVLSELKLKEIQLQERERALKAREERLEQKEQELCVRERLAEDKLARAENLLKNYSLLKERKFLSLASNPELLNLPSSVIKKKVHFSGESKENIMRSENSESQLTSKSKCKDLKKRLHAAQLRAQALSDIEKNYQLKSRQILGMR

[8] = target: T5, endogenous RhoGDI1 (human (endogenous in HT-29, HCT116 and DLD-1)); assay: co-IP; DLD-1 cells stably expressing mock or HA-NEK2, serum-free media 24 h; lysates immunoprecipitated with RhoGDI1 antibody; WB, band intensities 14-3-3 tau/RhoGDI1

binding [1]: binds weakly
Binder: PNVVVTGLTLVCSSAPGPLELD (domain or fragment, UniProt P52565 68-89) [GST-tagged RhoGDI1 aa 68–89]

binding [2]: binds
B1: Flag-tagged RhoGDI1 (Rho guanine nucleotide dissociation inhibitor 1) (protein, UniProt P52565 1-204)
chain: MAEQEPTAEQLAQIAAENEEDEHSVNYKPPAQKSIQEIQELDKDDESLRKYKEALLGRVAVSADPNVPNVVVTGLTLVCSSAPGPLELDLTGDLESFKKQSFVLKEGVEYRIKISFRVNREIVSGMKYIQHTYRKGVKIDKTDYMVGSYGPRAEEYEFLTPVEEAPKGMLARGSYSIKSRFTDDDKTDHLSWEWNLTIKKDWKD

binding [1]: binds
B2: GST-tagged RhoGDI1 wild type (WT) (protein, UniProt P52565 1-204)
chain: MAEQEPTAEQLAQIAAENEEDEHSVNYKPPAQKSIQEIQELDKDDESLRKYKEALLGRVAVSADPNVPNVVVTGLTLVCSSAPGPLELDLTGDLESFKKQSFVLKEGVEYRIKISFRVNREIVSGMKYIQHTYRKGVKIDKTDYMVGSYGPRAEEYEFLTPVEEAPKGMLARGSYSIKSRFTDDDKTDHLSWEWNLTIKKDWKD

binding [1]: binds
B3: GST-tagged RhoGDI1 aa 68–201 (domain or fragment, UniProt P52565 68-201)
chain: PNVVVTGLTLVCSSAPGPLELDLTGDLESFKKQSFVLKEGVEYRIKISFRVNREIVSGMKYIQHTYRKGVKIDKTDYMVGSYGPRAEEYEFLTPVEEAPKGMLARGSYSIKSRFTDDDKTDHLSWEWNLTIKKD

binding [1]: no binding
Binder: LTGDLESFKKQSFVLKEGVEYR (domain or fragment, UniProt P52565 90-111) [GST-tagged RhoGDI1 aa 90–111]

binding [1]: binds
B4: GST-tagged RhoGDI1 aa 1–134 (domain or fragment, UniProt P52565 1-134)
chain: MAEQEPTAEQLAQIAAENEEDEHSVNYKPPAQKSIQEIQELDKDDESLRKYKEALLGRVAVSADPNVPNVVVTGLTLVCSSAPGPLELDLTGDLESFKKQSFVLKEGVEYRIKISFRVNREIVSGMKYIQHTYR

binding [3]: binds | binding [4]: no binding
B5: active His-NEK2 (recombinant His-tagged NEK2) (enzyme, UniProt P51955 1-445)
chain: MPSRAEDYEVLYTIGTGSYGRCQKIRRKSDGKILVWKELDYGSMTEAEKQMLVSEVNLLRELKHPNIVRYYDRIIDRTNTTLYIVMEYCEGGDLASVITKGTKERQYLDEEFVLRVMTQLTLALKECHRRSDGGHTVLHRDLKPANVFLDGKQNVKLGDFGLARILNHDTSFAKTFVGTPYYMSPEQMNRMSYNEKSDIWSLGCLLYELCALMPPFTAFSQKELAGKIREGKFRRIPYRYSDELNEIITRMLNLKDYHRPSVEEILENPLIADLVADEQRRNLERRGRQLGEPEKSQDSSPVLSELKLKEIQLQERERALKAREERLEQKEQELCVRERLAEDKLARAENLLKNYSLLKERKFLSLASNPELLNLPSSVIKKKVHFSGESKENIMRSENSESQLTSKSKCKDLKKRLHAAQLRAQALSDIEKNYQLKSRQILGMR

binding [5]: binds | binding [6]: binds
B6: endogenous NEK2 (enzyme, UniProt P51955 1-445)
chain: MPSRAEDYEVLYTIGTGSYGRCQKIRRKSDGKILVWKELDYGSMTEAEKQMLVSEVNLLRELKHPNIVRYYDRIIDRTNTTLYIVMEYCEGGDLASVITKGTKERQYLDEEFVLRVMTQLTLALKECHRRSDGGHTVLHRDLKPANVFLDGKQNVKLGDFGLARILNHDTSFAKTFVGTPYYMSPEQMNRMSYNEKSDIWSLGCLLYELCALMPPFTAFSQKELAGKIREGKFRRIPYRYSDELNEIITRMLNLKDYHRPSVEEILENPLIADLVADEQRRNLERRGRQLGEPEKSQDSSPVLSELKLKEIQLQERERALKAREERLEQKEQELCVRERLAEDKLARAENLLKNYSLLKERKFLSLASNPELLNLPSSVIKKKVHFSGESKENIMRSENSESQLTSKSKCKDLKKRLHAAQLRAQALSDIEKNYQLKSRQILGMR

binding [7]: binds
Binder: IKISFRVNREIVSGMKYIQHTYR (domain or fragment, UniProt P52565 112-134) [GFP-tagged RhoGDI1 aa 112–134]

binding [8]: binds
B7: 14-3-3 tau (endogenous) (protein, UniProt P27348 1-245)
chain: MEKTELIQKAKLAEQAERYDDMATCMKAVTEQGAELSNEERNLLSVAYKNVVGGRRSAWRVISSIEQKTDTSDKKLQLIKDYREKVESELRSICTTVLELLDKYLIANATNPESKVFYLKMKGDYFRYLAEVACGDDRKQTIDNSQGAYQEAFDISKKEMQPTHPIRLGLALNFSVFYYEILNNPELACTLAKTAFDEAIAELDTLNEDSYKDSTLIMQLLRDNLTLWTSDSAGEECDAAEGAEN

B8: GST-tagged RhoGDI1 aa 1–67 (domain or fragment, UniProt P52565 1-67)
chain: MAEQEPTAEQLAQIAAENEEDEHSVNYKPPAQKSIQEIQELDKDDESLRKYKEALLGRVAVSADPNV
binding [1]: no binding

binding [2]: no binding
B9: Flag-tagged RhoGDI2 (protein, UniProt P52566 1-201)
chain: MTEKAPEPHVEEDDDDELDSKLNYKPPPQKSLKELQEMDKDDESLIKYKKTLLGDGPVVTDPKAPNVVVTRLTLVCESAPGPITMDLTGDLEALKKETIVLKEGSEYRVKIHFKVNRDIVSGLKYVQHTYRTGVKVDKATFMVGSYGPRPEEYEFLTPVEEAPKGMLARGTYHNKSFFTDDDKQDHLSWEWNLSIKKEWTE

binding [1]: binds
Binder: IKISFRVNREIVSGMKYIQHTYR (domain or fragment, UniProt P52565 112-134) [GST-tagged RhoGDI1 aa 112–134]
